In PubChem BioAssay AID1346428 (National Center for Advancing Translational Sciences (NCATS), 2018):
The whole screen tested about 48,000 compounds, of which about 1,200 (2.5%) were called active. About 2% were inconclusive and are not listed.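 Rule for the calls: active = activation of at least 60% and not above a set upper limit (about 1 call in 100 departs from these limits); inconclusive = activation of 40% to 60%, or above that upper limit; inactive = activation under 40%.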 Some of the results follow.

Target: Probable G-protein coupled receptor 32 (Homo sapiens) (UniProt O75388)
Sequence of UniProt O75388 (O75388 whole entry, looked up): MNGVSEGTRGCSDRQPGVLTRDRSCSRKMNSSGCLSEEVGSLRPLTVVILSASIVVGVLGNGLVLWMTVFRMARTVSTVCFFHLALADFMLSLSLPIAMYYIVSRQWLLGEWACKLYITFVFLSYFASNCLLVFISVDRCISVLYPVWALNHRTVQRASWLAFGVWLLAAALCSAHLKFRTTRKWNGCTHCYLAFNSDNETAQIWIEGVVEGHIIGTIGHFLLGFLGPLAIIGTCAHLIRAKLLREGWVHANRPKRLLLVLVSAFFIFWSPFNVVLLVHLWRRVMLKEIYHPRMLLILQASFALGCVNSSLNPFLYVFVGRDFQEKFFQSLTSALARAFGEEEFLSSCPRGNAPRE
Assay: qHTS for Agonists of Human Resolvin D1 Receptor DRV1; note: 0% is about no effect
Conditions: CHO-K1 GPR32 beta-arrestin PathHunter luminescence, 90 min; at 76.9 µM; stronger effect = higher value; zero percent set by DMSO-only wells
Method in brief: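 Beta-arrestin recruitment read-out: luminescence from complemented beta-Gal in CHO-K1 GPR32 PathHunter cells, measured 1 h after detection reagent at ambient temperature following 90 min compound exposure at 37 °C; DMSO served as basal (EC0) control.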

activation, inactive:
CCn1c(C(=O)NCc2cc(Br)ccc2OC)cc2oc3ccccc3c21 -18.9%, Cc1cccc(CCNC(=O)CN(c2ccc(C(C)C)cc2)S(=O)(=O)c2c(C)nn(C)c2C)c1 -19.2%, Cc1ccc(NC(=O)N2CCN(c3cc(-c4noc(C)n4)ccc3C)CC2)c(C)c1 -0.816%, CCCCC(=O)O[C@]1(C(=O)CO)[C@@H](C)C[C@H]2[C@@H]3CCC4=CC(=O)C=C[C@]4(C)[C@@]3(F)[C@@H](O)C[C@@]21C 15.3%, CCCCNS(=O)(=O)c1ccc(C)c(-c2nnc3c4ccccc4c(C)nn23)c1 -13.5%, Cc1ccc(CN2CCN(C3CCN(C(=O)Nc4ccc(C)cc4Cl)CC3)C(=O)C2=O)cc1 -17.5%, CC(=O)N1CCc2cc(CNC(=O)c3ccccc3Br)ccc21 -7.43%, CNS(=O)(=O)c1cn(CC(=O)Nc2ccc(C(C)=O)cc2)cc1S(=O)(=O)NC -4.9%, CC(=O)N1CCc2cc(S(=O)(=O)NC(Cc3ccccc3)C(=O)NCc3ccc(C)cc3)ccc21 (stereo unspecified) 13%, O=C(NCc1cccs1)C1CCN(C(=O)N2CCOc3ccc(Cl)cc32)CC1 -2.11%, O=C(Nc1ccc(Br)cc1)c1ccc(F)c(S(=O)(=O)N2CCc3ccccc32)c1 -9.21%, COc1ccc(CCNC(=O)C2CCN(S(=O)(=O)c3c(C)noc3/C=C/c3ccc(C)cc3)CC2)cc1OC 3.61%, Cc1ccc(S(=O)(=O)C(CNC(=O)C(=O)NCc2ccccc2C)c2cccs2)cc1 (stereo unspecified) -3.32%, CCOC(=O)c1ccc(NC(=O)CCn2ccc(C)n2)cc1 -4.17%, CC(C)OC(=O)c1c(-c2ccccc2)c(-c2ccccc2)nn(C)c1=O -15%, CC(C)CCN(C(=O)Nc1ccccc1)C(C)c1cccs1 (stereo unspecified) -16.6%, Cc1cc(C)c(Cn2c(C3CC(=O)N(c4ccc(F)cc4)C3)nc3ccccc32)c(C)c1 (stereo unspecified) -4.11%, COc1cccc(NC(=O)CSc2nc(=O)n(Cc3ccncc3)c3c2CCC3)c1 -14.1%, CCCN(CCC)CC(O)Cn1cc(/C=C/C(=O)c2ccc(Br)cc2)c2ccccc21 (stereo unspecified) 6.73%, CCn1cc(C(=O)N(C)c2ccc(C(C)C)cc2)c2cc(OC)c(OC)cc2c1=O 19.5%, Cc1ccc(CNC(=O)CCNS(=O)(=O)c2cccc3nsnc23)cc1 11.2%, CCc1ccc(NC(=O)Cn2c(=O)n(-c3ccc(OC)cc3)c(=O)c3ccc(C(=O)NCc4ccc(C)cc4)cc32)cc1 -9.34%, Cc1ccc2nc(NC(=O)CSc3ncc(C(=O)Nc4ccc(F)cc4)c(=O)n3C)sc2c1 -12.5%, Cc1c(CCC(=O)N2CCCCC2)c(=O)oc2cc3occ(C(C)(C)C)c3cc12 -4.41%, Cc1ccc(Cc2nc3ccccc3nc2SCC(=O)N2CCN(c3ccc(F)cc3)CC2)cc1 -24.1%, CCOC(=O)c1noc2nc(C)n(Cc3cccc([N+](=O)[O-])c3)c(=O)c12 -8.74%, COc1ccc(CNC(=O)Cc2ccc(NC(=O)N3CCSc4ncccc43)cc2)cc1 2.17%, COCCn1cc(C(=O)NCCCOC(C)C)c2c3ccccc3n(C)c2c1=O -2.07%, CCc1ccc(-n2nc(C)c3c(C)cc(=O)n(CC(=O)Nc4ccc(F)cc4C)c32)cc1 4.73%, CCc1nn(CC(=O)NC(C)CCc2ccccc2)c(=O)c2cc3c(OC)cccc3n12 (stereo unspecified) -24.8%, Cc1nnc(SCC(=O)NCc2ccccc2Cl)c2nn(-c3ccccc3)c(C)c12 -9.9%, Cc1ccc2c(CN3CCN(C(=O)c4ccc(Br)cc4)CC3)cc(=O)oc2c1 -8.11%, CCOC(=O)Cn1c(=O)n(C2CCCCC2)c2nc(-c3ccc(C(C)C)cc3)nc(C(N)=O)c21 -11.6%, CCC(C(=O)N1CCN(c2cc(C)ccc2C)CC1)n1nc(C)n2c(cc3occc32)c1=O (stereo unspecified) 5.24%, Cc1ccc(S(=O)(=O)N2CCc3cc(C(=O)Nc4c(F)cccc4F)ccc32)cc1 -4.57%, CCOc1ccc(NC(=O)C2CCCN(c3nnc(C)c4c(C)n(-c5ccccc5)nc34)C2)cc1 (stereo unspecified) -6.78%, Cn1c(=O)c2c(nc(N3CCOCC3)n2Cc2ccc(Br)cc2)n(C)c1=O -2.25%, COc1ccccc1NC(=O)CSC1=Nc2ccccc2C2=NC(CC(=O)NCc3ccccc3)C(=O)N12 (stereo unspecified) -10%, COc1ccc(NC(=O)C2CCN(c3ccc(Sc4ccc(C)cc4)nn3)CC2)c(OC)c1 39.4%, Cc1ccc(CN2CCN(C3CCNCC3)C(=O)C2=O)cc1 -11.1%, O=C(CSc1ccc(-c2ccccn2)nn1)Nc1ccc(F)cc1F -4.73%, O=C1c2ccccc2C(=O)c2c(NCCc3ccc(O)cc3)ccc(NCCc3ccc(O)cc3)c21 -61.2%, CCOc1ccc2nc(N3CCCC(C(=O)Nc4cc(Cl)c(OC)cc4OC)C3)sc2c1 (stereo unspecified) -11%, Cc1c(C(=O)Nc2cccc(-c3nc4ccccc4s3)c2)oc2ccccc12 2.9%, CCCCCCSc1nnc2c(n1)OC(C)Nc1ccc(Br)cc1-2 (stereo unspecified) 42.4%, CCOC(=O)c1ccccc1NC(=O)COc1ccccc1-c1nnc(-c2ccccc2)o1 -8.44%, CSc1nn(Cc2cccc(C)c2)c(N)c1S(=O)(=O)c1ccccc1 1.25%, COc1ccc(CNC(=O)c2ccc(NC(=O)N3CCSc4ccccc43)cc2)cc1 -24%, CCc1ccc(CNCc2c(C(=O)O)n(Cc3ccc(C)cc3)c3cc(C)ccc23)cc1 32.6%, COc1cc(NC(=O)C(CC(C)C)NS(=O)(=O)c2ccc3c(c2)CCN3C(C)=O)cc(OC)c1 (stereo unspecified) -12.5%, COc1cc2c(=O)n(CCC(=O)NCC3CCCO3)c(=O)n(CC(=O)Nc3ccc(C)cc3C)c2cc1OC (stereo unspecified) -6.3%
